According to PMC6919601, “Identification of Plasmodium dipeptidyl aminopeptidase allosteric inhibitors by high throughput screening” (PLoS ONE, 2019):
Screen size: about 110,000 compounds; about 230 (0.21%) showed an effect of 50% or more. This is one part of the list.

The compounds below were run against DPAP1 (Plasmodium falciparum, UniProt Q8IIJ9) (assay: primary screen, percent inhibition; read by cleavage of a fluorogenic dipeptide substrate; higher = more effect of the substance).
Set-up: species or system P. falciparum D10 trophozoite lysates; single well
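Also: 30 min substrate incubation versus DMSO and 10 µM JCP410 controls.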

DPAP1, sequence (Q8IIJ9 whole entry, looked up): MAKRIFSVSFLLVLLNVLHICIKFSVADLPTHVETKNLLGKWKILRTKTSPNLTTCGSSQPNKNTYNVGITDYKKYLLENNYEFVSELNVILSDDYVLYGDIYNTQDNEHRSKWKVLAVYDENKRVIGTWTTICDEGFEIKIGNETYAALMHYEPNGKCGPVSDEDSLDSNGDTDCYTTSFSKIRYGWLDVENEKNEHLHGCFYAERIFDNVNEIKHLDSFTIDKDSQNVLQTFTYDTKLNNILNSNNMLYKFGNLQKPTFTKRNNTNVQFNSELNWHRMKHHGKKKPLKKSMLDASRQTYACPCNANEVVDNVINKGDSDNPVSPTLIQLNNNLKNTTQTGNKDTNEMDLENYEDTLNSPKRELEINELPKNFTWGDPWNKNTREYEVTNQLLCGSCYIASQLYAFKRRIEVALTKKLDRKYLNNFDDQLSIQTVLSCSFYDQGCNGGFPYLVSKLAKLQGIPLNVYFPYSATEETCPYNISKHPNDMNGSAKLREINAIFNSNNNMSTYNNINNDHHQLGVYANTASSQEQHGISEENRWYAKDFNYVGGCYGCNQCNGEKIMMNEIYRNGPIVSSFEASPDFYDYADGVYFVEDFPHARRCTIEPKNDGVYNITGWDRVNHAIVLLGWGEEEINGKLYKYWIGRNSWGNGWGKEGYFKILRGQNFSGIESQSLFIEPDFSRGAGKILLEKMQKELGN

Compound	% Inhibition @ 10 uM
CCC(C)NC(=O)C1CC(c2ccc(OC)cc2)=NO1 (stereo not shown)	1.62%
O=C(NCCCN1CCOCC1)c1cnn(-c2ccccc2)c1-n1cccc1	-1.58%
Cc1ccc(C(=O)C2=C(O)C(=O)N(c3ccc(O)cc3)C2c2ccc(F)cc2)cc1 (stereo not shown)	-2.94%
CCOC(=O)N1CCN(C(=O)CSc2nnc(COc3ccccc3)o2)CC1	4.05%
COc1cc(/C=C2/NC(=O)NC2=O)c(Br)cc1OCc1ccccc1	3.8%
CCN(CC)C(=O)C1CCCN(C2CCC(c3ccccc3)CC2)C1 (stereo not shown)	1.42%
COc1ccc(OC)c(NC(=O)c2ccc(Cn3nc(C)c(Cl)c3C)o2)c1	-1.37%
O=C(CN1C(=O)S/C(=C\c2cc(Cl)c(O)c(Cl)c2)C1=O)Nc1ccccc1	2.22%
O=C(CSc1ccc(Cl)cc1)Nc1ccc(N2CCN(C(=O)c3cccs3)CC2)cc1	2.84%
CN(C)c1ccc(C2Nc3ccccc3N=C3CC(c4cccs4)CC(O)=C32)cc1 (stereo not shown)	-4.12%
CCCCNC(=O)c1c(C)cc(=O)oc1C	-4.06%
COCCN1C(=O)/C(=C/c2cccs2)S/C1=N\c1ccccc1	-7.1%
CCCOc1ccc(C(=O)Nc2ccc(N3CCN(C)CC3)cc2)cc1	-2.29%
COCCN1C(=O)/C(=C/c2ccc(O)c(Br)c2)S/C1=N\c1ccccc1	9.72%
O=S(=O)(NC1CCCCC1)c1ccc(Sc2ccc(S(=O)(=O)NC3CCCCC3)cc2)cc1	-2.55%
Brc1ccc2ncnc(NCCc3ccccc3)c2c1	-6.87%
Cc1cc(-c2ccc(S(=O)(=O)NCc3ccc4c(c3)OCO4)s2)on1	-0.695%
Cc1cc(C(F)(F)F)nn1CC(=O)Nc1sc2c(c1C#N)CCC(C)C2 (stereo not shown)	4.39%
O=C(Nc1cccc(NC(=O)c2ccccc2Cl)c1)c1cccc([N+](=O)[O-])c1	-2.03%
Cc1[nH]c2ccccc2c1C1=CCN(S(=O)(=O)Cc2ccccc2)CC1	-8.68%
O=S(=O)(c1ccc2[nH]ccc2c1)N1CCCCCC1	-3.53%

Compound	% Inhibition @ 10 uM
Cc1nc(NCCc2c(C)[nH]c3ccccc23)c2c3c(sc2n1)CCC3	5.76%
CCOc1ccc(CCNC(=O)C2CCCN2C(=O)OCc2ccccc2)cc1OCC (stereo not shown)	-0.458%
COc1ccc(NC(=O)CN(c2cc(Cl)ccc2C)S(C)(=O)=O)cc1OC	-4.56%
c1ccc2c(c1)c(SC1CCCCC1)nn1nnnc21	6.1%
CCOc1ccc(C2c3c(oc4ccccc4c3=O)C(=O)N2c2ccccn2)cc1OC (stereo not shown)	-3.64%
CC(C)(C)C1CCc2c(sc(NC(=O)c3cccnc3)c2C(N)=O)C1 (stereo not shown)	1.64%
COc1ccc(-c2cc(C(=O)NC3CCCCC3)c3ccccc3n2)cc1	-0.13%
CCOc1ccc(-n2c(-c3ccc(O)c(O)c3)cn3c4c(=O)n(C)c(=O)n(C)c4nc23)cc1	5.45%
CC(NC(=O)c1ccccc1)c1cc2c(cc1Cl)OCCCO2 (stereo not shown)	0.475%
O=C1CC(c2cn(Cc3ccccc3)c3ccccc23)C(=O)N1c1ccccc1 (stereo not shown)	1.24%
CSc1ccc(CN2CCN(Cc3ccccc3)CC2)cc1	-3.13%
Cc1nc2ccccc2c(O)c1CN1CC2(C)CC1CC(C)(C)C2 (stereo not shown)	-4.93%
COc1cc(-n2nnnc2SCC(=O)Nc2nnc(C)s2)c(OC)cc1Cl	-2.72%
O=C(O)CCNC(=O)/C(=C/C=C/c1ccccc1)NC(=O)c1ccccc1	0.587%
CCOc1ccc(CCNC(=O)c2cc3cc4cc(OC)ccc4nc3o2)cc1OCC	-1.54%
COc1cccc2c1Oc1ncccc1N(c1ccc(C(=O)O)s1)C2	-0.0309%
CCOc1cccc2cc(-c3nnc(NCc4ccc5c(c4)OCO5)s3)c(=O)oc12	10.6%
COc1cc(OC)cc(C(=O)N2CCN(Cc3cc(OC)ccc3OC)CC2)c1	9.88%
Cc1ccc(N2C(=O)CC(N3CCC(O)(c4ccc(Br)cc4)CC3)C2=O)cc1 (stereo not shown)	13.7%
CCOc1ccc(C(=O)C2=C(O)C(=O)N(Cc3cccnc3)C2c2ccc(F)cc2)cc1C (stereo not shown)	-1.93%
Cc1cc(C)nc(NS(=O)(=O)c2ccc(NC(=O)C3(c4ccccc4)CCCC3)cc2)n1	1.89%

Compound	% Inhibition @ 10 uM
Cc1ccc(CNC(=O)CN(C)S(=O)(=O)c2ccc3[nH]c4c(c3c2)CCCC4)cc1	5.14%
Cc1ccc(NC(=O)COc2ccc(S(=O)(=O)NC3CCCCC3)cc2)c(C)c1	-2.67%
CC(C)c1ccc(/C=C/C(=O)Nc2cccc3ccccc23)cc1	1.96%
Cc1ccc2[nH]c3c(c2c1)CCCC3CN (stereo not shown)	-3.6%
Cc1nn(C(C)C(=O)NCCN(C)C)c(=O)c2nn(-c3ccccc3)c(C)c12 (stereo not shown)	-2.68%
O=C(Nc1ccc2ccccc2c1)C1CC(=O)N(c2ccccc2)C1 (stereo not shown)	0.76%
Cc1ccn(CCC(=O)NCCc2nc3cc(F)ccc3[nH]2)n1	1.28%
C#CCOc1c(Cl)cc(C2C(C#N)=C(N)Oc3[nH]nc(C)c32)cc1OC (stereo not shown)	-4.67%
COc1ccccc1C(=O)Nc1nc2n(n1)C(c1ccccc1)C=C(C)N2 (stereo not shown)	-3.96%
O=C(/C=C/c1ccc2c(c1)OCO2)N1CCOCC1	-0.351%
COc1ccccc1Nc1nc(Cl)nc(NC(C)(C)C)n1	-1.76%
CC1(C)OC[C@H]2O[C@@H](Oc3cccc4ccccc34)[C@H](O)[C@@H](O)[C@@H]2O1	1.4%
CN(Cc1ccccc1)C(=O)CN1CCCC1=O	11.8%
N#Cc1c(NC(=O)C2c3ccccc3Oc3ccccc32)sc2c1CCCC2	3.94%
Cc1c(Cl)cccc1NS(=O)(=O)c1ccc2ccccc2c1	3.53%
CSC1=NSC2=NC(=O)/C(=C\c3ccc(-c4ccccc4)o3)C(=N)N12	-19.8%
Cc1ccc(NC(=O)Cc2ccccc2F)cc1O	-0.884%
O=C1NC(=O)N(c2ccccc2)C(=O)/C1=C\Nc1ccccn1	4.08%
COc1cccc(/C=c2\sc3nnc(-c4ccc(C)cc4)n3c2=O)c1	-3.14%
